The list shows a part of the results.
These sequences were tested on PF3D7_0420300 AP2 domain 1 (GST-tagged) (assay: gcPBM binding intensity (ln(normalized median fluorescence intensity)); higher = stronger DNA binding).
Procedure, shortened: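 DNA-binding domains from P. falciparum, fused to GST and produced in E. coli, were put on an Agilent 4 × 180k double-stranded probe array for 1 h in 1× PBS holding 1% milk, 0.2 mg/ml BSA, 0.5% salmon testes DNA and 0.03% Triton X-100. Probes were primer-extended, 36 bp long and drawn from intergenic genomic regions, with negative controls included. After Alexa488 anti-GST antibody detection and a 488 nm scan, binding intensity was set as the highest Masliner-normalised natural-log median intensity across replicate spots of either probe orientation.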

Row | Sequence | gcPBM binding intensity (ln)
1 | TTCCTATAAAAAAACACACACATATAAATATAAATA [CACACA_site7154] | 9.86
2 | AAATAACTTTTAAATACACACGTAAAATATATTGTG [CACACA_site9085] | 9.27
3 | ACCGTGGGAGGACACACACACACACGCACATATATA [CACACA_site6289] | 10.3
4 | TACATTATAAATATTACACACTTTATAAAATAATAA [CACACA_site6096] | 9.23
5 | TTAACCACTAAAAGTACACACATATATACATATATA [CACACA_site3912] | 9.45
6 | ATAATATTTTTATGTACACACCTTAATCCTTAAAAG [CACACA_site5881] | 9.3
7 | TCCTTTTTTTTTTATGCACACACAATTATACATTCC [CACACA_site9287] | 10
8 | TCTATTAATTAATATACACACATTATATATATATAT [CACACA_site8815] | 9.48
9 | AATATATATATATATATATTTTTGTTAGAATATGGA [CACACA_negctrl_site212] | 8.99
10 | AAATAAATAAATAGAGTGCATATATATATATATTTT | 9.37
11 | ATATACAAAGGATTAACACACATATTATTATAGATA [CACACA_site6966] | 9.65
12 | CTTTTTATTTATCATACACACACAGAAAAAAAAAAA [CACACA_site7935] | 9.52
13 | AATTTTTAGAAGAACACACACATATATATTATGACC [CACACA_site246] | 9.84
14 | ATAGGAGAAAAAGAATGTACGTATGATGTTGAAAAT [XGTACX_site7779] | 9.65
15 | ATTATGCACAGACACACACACACACTACTAAAAAAT [CACACA_site7252] | 10.1
16 | AAAAAAAATAAAAATATATATATATATATATAAATA [GTGCAC_negctrl_site676] | 9.13
17 | ATATAGAATGTTTACACACGCAATAAATATATATAT [CACACA_site217] | 9.46
18 | ATGGTATAAAAAAATACACACTTATTTATATTCTTA [CACACA_site6370] | 9.3
19 | GCGTATCATTTTAAAACACACAGGATTTTATAAGTA [CACACA_site1225] | 9.21

Row | Sequence | gcPBM binding intensity (ln)
20 | TTAAAAAATCACAACACACACACACGCAAAAAAAAA [CACACA_site6793] | 10
21 | TGTAGTCTGGAGAAGAGTACACAGTATCTGGTAGCT [XGTACX_site2036] | 8.97
22 | AAAAATAACATATAAACACACATATAGATTTATATA [CACACA_site7738] | 9.63
23 | AAATATTACATACACGCACACATTAAAATATTTAAA [CACACA_site5440] | 9.55
24 | ATGTACCTTCAAACTACACACAAATGAAGGAACACA [CACACA_site3330] | 9.57
25 | ATCTAATAAAAATACACACACATATGGTTTGTGAAT [CACACA_site6962] | 9.87
26 | ATATATACATACATATGTACATATGTAGATATATTT [XGTACX_site1230] | 9.34
27 | ATTTTTTTTGTTTATTCTTATGTGGTTATTAAATTA [CACACA_negctrl_site1000] | 9.55
28 | TACGTTTTAAAACACACACACAAAAAAAAAAAAAAA [CACACA_site3876] | 9.43
29 | TATTTGTTTAAATTCACACACGTATATATATTTATA [CACACA_site5651] | 9.55
30 | ATTATGAAATATCGTGCACACACGAATAATATAAGA [CACACA_site1294] | 9.42
31 | AAAAGAGAAATGGGCACACACACACCCATTATATAT [CACACA_site1530] | 9.88
32 | ACCATATAAAGTTAGGTGCATTTGTATGTATCTTAC | 9.23
33 | TCTTGTTCGCCCTATTGTACAAACATATATTGTGAT [XGTACX_site2884] | 9.49
34 | TTATTTTGATCTGGTTGTACATATAATATATAGTGG [XGTACX_site357] | 9.34
35 | ATTAATTTGATTTTAATAAGAATATTTGTGGGGAAT [GTGCAC_negctrl_site198] | 9.04
36 | TTTTCAATATATATATGCTGAATTTATAATTTGTAT [CACACA_negctrl_site1774] | 9.09
37 | ATATTGATTTGTGGCACACATATAATATATTCCTAT [CACACA_site3046] | 9.29
38 | TTTTATTTTTGTTGGTCCCTCATTTAAGTTAATAAA [TGCATGCA_negctrl_site465] | 9.37

Row | Sequence | gcPBM binding intensity (ln)
39 | TGAATAATAAAAAATACACACACATATATATATATT [CACACA_site9146] | 9.82
40 | TATTTATATATTTGTTGTACGTATTTATATATTCTT [XGTACX_site3622] | 9.51
41 | TTATATTAATATTATATTTAAAAATAAAATATAAAT [TGCATGCA_negctrl_site79] | 8.77
42 | ATTTTTATATATATCTGTACTAAAAAAAAAAAAAAA [XGTACX_site5258] | 8.71
43 | AGAAGTAAAAAAATAGCACACACACTAATACCAACA [CACACA_site8354] | 9.98
44 | AAACAAAAAAGAAAAACAATGAGATAAAGAAGAGAA [CACACA_negctrl_site804] | 9.78
45 | AAAAGAAAAATATTCACACATATAAATAATATATAA [CACACA_site4201] | 9.19
46 | TTTAATTATTTATTTTGTACATATATTATATATATA [XGTACX_site5760] | 9.2
47 | AATTAAATTCGGTACTGTACATTTCAAAAATATACG [XGTACX_site48] | 9.09
48 | CTTAAATTTTACTGAAGTACAAAATCGGTTCAATGA [XGTACX_site3292] | 8.91
49 | GGGAAAAAAAAAAGCACACATACGTAAATATATAAC [CACACA_site226] | 9.74
50 | TATACATATTTTTTTTGTACATATATAATATATATA [XGTACX_site2399] | 9.13
51 | TTTAAAAAAAGCAGTACATGCAAAATAATAACAAGC [TGCATGCA_site392] | 9.76
52 | CAATTATATAATTGAAGTACTAGGAAAGATATATAT [XGTACX_site5459] | 9.44
53 | TAAAAAAATATTACATGTACATAAAATATATATATA [XGTACX_site4633] | 9.18
54 | ATATTATATATATACACACACACATGCATGCACCTA [CACACA_site106] | 10.2
55 | TTTTTTAAATATATGGTGCATAGAAAGATATTATAC [GTGCAC_site9984] | 9.16
56 | ATGTGTTAAAAATGCACACAAAAAAATATACATATA [CACACA_site295] | 9.47
57 | ACATGTGAACATTCAATGCACACGATGTAATTATAC [CACACA_site14] | 9.43

— the supplement of paper PMC11417369
